# Assay results published in PubChem BioAssay AID504444 (National Center for Advancing Translational Sciences (NCATS), 2011).
# The campaign covered roughly 360,000 compounds. About 7,500 (2.1%) were called active. Roughly 20% stayed inconclusive and do not appear here. Calls follow the shape of the dose curve; as a rule, active = well fitted inhibition curve with a large enough effect; inconclusive = small, poorly fitted or top-dose-only effect, or effect the other way; inactive = flat fitted curve, though single readings scatter. The list shows a part of the results, in another mix than the full data. A structure can be active in one record and inactive in another.
# Test: Nrf2 qHTS screen for inhibitors; also: nearly all actives have a fitted effect of over 60% in size
# Conditions: A549 ARE-Fluc reporter, luciferase luminescence, 18-24 h; series mostly up to 46 µM; activity change, negative = inhibition: at the top concentration
# Text: NIH Molecular Libraries Probe Production Network [MLPCN]
# NIH Chemical Genomics Center [NCGC]
# Assay Provider: Shyam Biswal, Johns Hopkins University
# Nrf2 is a transcription factor that maintains cellular redox homoestasis and protects cells from xenobiotics. Nrf2 binds to the antioxidant response element (ARE) to induce gene expression of a broad spectrum of genes that encode for antioxidants. […] Finding a small molecule that act as an inhibitor of Nrf2 function would represent a novel therapeutic target that could lead to improvement in survival of patients undergoing chemo- and/or radio- therapy.
# This is the Nrf2 activity measured in the luminescent read.
# 1. Shibata, T., et al., Genetic Alteration of Keap1 Confers Constitutive Nrf2 Activation and Resistance to Chemotherapy in Gallbladder Cancer. Gastroenterology, 2008.
# 2. Sjoblom, T., et al., The consensus coding sequences of human breast and colorectal cancers. Science, 2006. 314(5797): p. 268-74.
# NCGC Assay Protocol Summary:
# A concentration-response assay was performed with A549 ARE_Fluc cells which are suspended in 5% FBS OPTI-MEM. Five uL were dispensed into 1536-well white TC-treated plate using the Kalypsys dispenser to achieve a density of 5000 cells/well in all columns except column 1. The plate is incubated at 37deg C at 5% CO2 for 2 hours before 23 nL of compounds are added with the Kalypsys pin tool equipped with a 1,536-pin array containing 10-nL slotted pins (FP1S10, 0.457-mm diameter, 50.8 mm long; V&P Scientific). The control compounds Budesonide and Staurosporine are both added at a concentration of 2mM and Budesonide is also added as a 1:10 titration, starting at 200uM, to achieve dose-response. After an 18-24 hour incubation at 37deg C at 5% CO2, 5ul of medium is added to column 1. Afterwards 1ul of 5x of CellTiter-Fluor (Promega) is added to every well. The plate is then incubated at 37deg C at 5% CO2 for 30 minutes before they are read on the ViewLux (Perkin Elmer) for a fluorescent read Ex=405(10)/Em=525(10) for a 3 second exposure, 2x binning, and high gain. Then 3 uL of 3x BugLite is dispensed into all wells and the plate is incubated at ambient room temperature for 15 minutes. Afterwards another ViewLux read is performed using the clear filter to get a luminescent read with the settings of 40 second exposure, 2x binning, and high gain. Cytotoxicity is assessed through the first fluorescent read and then biochemical activity against Nrf2 is measured in the luminescent read.
# % is scaled to controls: 0 for no effect and ±100 for the full control effect; potency is read from the fitted curve at half-maximal effect.
Compound,"activity change, negative = inhibition",Potency
CS(=O)(=O)N1CCc2cc(C(=O)N3CCN(c4ccccc4)CC3)ccc21,inactive: 12.7%,
COc1ccc(CNCCC(c2ccccc2)c2ccc3c(c2)OCO3)cc1 (configuration not stated),inactive: -3.59%,
COC(=O)C(C)n1nnc2sc(-c3ccccc3)cc2c1=O (configuration not stated),inactive: 1.29%,
COc1cc(/C=C2\SC(=S)N(CCC(=O)Nc3ccccc3)C2=O)cc(OC)c1OC,inactive: -12.2%,
O=C(Nc1cccc(S(=O)(=O)Nc2ccccc2Cl)c1)c1ccc(Cl)nc1,,active: 5.17 µM
CC(C)(C)OC(=O)N[C@H](/C=C/c1ccccc1)C(=O)OC(C)(C)C,inactive: 2.32%,
C=CCC[C@H](Cc1ccc(F)cc1)C(=O)OC[C@H](Cc1c[nH]c2ccccc12)NC(=O)[C@H](CC=C)CC(=O)NCCO,inactive: -21.1%,
O=C(O)C(CCCCNS(=O)(=O)c1ccc(F)cc1)NS(=O)(=O)c1ccc(F)cc1 (configuration not stated),inactive: -4.2%,
Cc1nc2sccn2c(=O)c1S(=O)(=O)NCc1ccccc1,inactive: 14.2%,
Cc1ccc(C)c(N2CCN(C(=O)c3ccc4c(c3)c(C)c(C)n4C)CC2)c1,inactive: -26.4%,
C/C(N)=C(/C#N)C(=O)CSc1nc(C2CCCCC2)n(-c2ccccc2)n1,inactive: -17.8%,
CCO[C@H]1OC(C(=O)N2CCOCC2)=C[C@@H](c2coc3ccccc3c2=O)[C@@H]1CCCO,inactive: -8.54%,
COc1cc(NC(=O)c2cccc(F)c2)ccc1NC(=O)c1cc2ccccc2o1,inactive: -3.35%,
CCn1c(CN2CCOCC2)nc2cc(NC(=O)c3ccc([N+](=O)[O-])cc3)ccc21,,active: 9.2 µM
CCOC(=O)C1CCN(C(=O)Cn2nc(C)n3c(cc4cc(C)ccc43)c2=O)CC1,inactive: 5.72%,
CCc1ccccc1NC(=O)Cn1nnc(C(=O)NCc2cccs2)c1N,inactive: -4.73%,
CCN1CCN(c2cc(C)c3cc(NC(=O)c4ccc(OC)c(OC)c4)ccc3n2)CC1,inactive: -15.6% [at 9.27 µM],active: 16.4 µM
C=CC[C@@H](Cc1ccc(F)cc1)C(=O)OC[C@@H]1CCCN1C(=O)[C@@H](CC=C)CC(=O)N[C@@H](CO)Cc1ccccc1,inactive: 4.56%,
COC(C[C@@H]1O[C@@H]1[C@H](O)[C@@H](C)OCc1ccccc1)OC,inactive: 9.4%,
CC(CC(=O)Nc1ccc(Cl)c(S(=O)(=O)N2CCOCC2)c1)c1ccccc1 (configuration not stated),,active: 7.31 µM
Cc1ccc(-c2cc([C@H]3[C@@H]4C=CCC[C@@]4(C)C(=O)N3Cc3ccccc3)ccc2F)cc1,inactive: -16.2%,
COc1ccccc1NS(=O)(=O)c1ccc(C(=O)N2CCCCCC2)cc1,,active: 10.3 µM
Cc1csc2c(N3CCN(C(=O)Nc4ccccc4)CC3)ncnc12,,active: 8.2 µM
CC(C)(C)c1ccc2c(c1)OC(C(=O)N/N=C\c1ccccn1)CO2 (configuration not stated),,active: 16.4 µM
CC(/C=N/NC(=O)CSc1ccccn1)=C\c1ccc(C(C)C)cc1,inactive: 24.4%,
CC[n+]1c(/C=C(\C)SC)sc2ccccc21,,active: 20.6 µM

Compound,"activity change, negative = inhibition",Potency
CN(c1ccccc1)S(=O)(=O)c1nnc(NC(=O)C2CCCCC2)s1,inactive: -3.09%,
Cn1nc(C(=O)NCc2cccc(Cl)c2)c2c1-c1ccccc1S(=O)(=O)C2,inactive: 0.784%,
Cc1ccccc1N(C)S(=O)(=O)c1nnc(NC(=O)c2ccccc2F)s1,inactive: 10.8%,
COc1ccc(NC(=O)c2ccc(COc3ccccc3Br)o2)cc1OC,,active: 23.1 µM
COc1ccc(OC)c(S(=O)(=O)Nc2ccc3[nH]c(=O)[nH]c3c2)c1,inactive: 9.82%,
Cc1ccc2c(c1)N(CC(=O)NCCCN1CCCCC1)C(=O)c1cccnc1O2,inactive: 28.4%,
COc1ccc(/C=C2/SC(=S)N(CCCC(=O)Nc3ccc(O)cc3)C2=O)cc1,inactive: 16.9%,
CCNc1nc(NC(C)CC)nc(Oc2ccc(OCC)nn2)n1 (configuration not stated),inactive: -5.9%,
CCC(C)NC(=O)CCC(=O)NNc1nc2ccccc2c2nc(C)nn12 (configuration not stated),inactive: -0.323%,
CC(C)(C)[C@H]1COC(=O)[C@H](NC(=O)OCC2c3ccccc3-c3ccccc32)C/C=C\C[C@@H](CC(=O)N[C@H](CO)Cc2ccccc2)C(=O)N1,inactive: 1.64%,
Cc1ccccc1-c1nc(CS(=O)(=O)CC(=O)NCCc2ccccc2)c(C)o1,inactive: -17%,
CCC/C=C1/CCCOC(C(=O)NCCNCCO)(C(F)(F)F)C1 (configuration not stated),inactive: 11.1%,
CN(/C=C/C(=C/C=[N+](C)c1ccccc1)OCCCS(=O)(=O)[O-])c1ccccc1,inactive: 7.22%,
COC(=O)CNC(=O)C1CCN(S(=O)(=O)c2cccc3nsnc23)CC1,inactive: -20.7%,
C[C@]12c3[nH]c4cc(-c5ccco5)ccc4c3CCN1C(=O)[C@@H](CC(=O)NCC13CC4CC(CC(C4)C1)C3)C[C@@H]2C(=O)N1CCOCC1,,active: 23.1 µM
O=S(=O)(c1ccc2nc(N3CCN(c4ccccc4)CC3)ccc2c1)N1CCCCC1,inactive: 22.1%,
Cc1ccc(NS(=O)(=O)c2cccc(C(=O)Nc3cccnc3)c2)c(C)c1,,active: 8.2 µM
CN(CC(=O)Nc1ccc(F)c(Cl)c1)S(=O)(=O)c1cccc2nsnc12,,active: 25.9 µM
O=C(Cn1cnc(S(=O)(=O)N2CCCC2)c1)Nc1ccc(OC(F)(F)F)cc1,inactive: 15.2%,
CCc1nonc1NC(=O)c1oc2cc(C)c(Cl)cc2c1C,inactive: 5.63%,
N#C/C(=C/c1ccc(N2CCOCC2)o1)C(=O)N1CCOCC1,inactive: 19.3%,
Cc1ccc(NC(=O)CCc2c(C)nn(-c3ccc(N4CCOCC4)nn3)c2C)cc1F,inactive: -4.18%,
CCOC(=O)c1cccc(NC(=O)CCNS(=O)(=O)c2cccc3nonc23)c1,inactive: 2.07% [at 9.27 µM],
O=C1OC[C@@H]2CCCN2C(=O)[C@H](CC(=O)N(CCO)Cc2ccccc2)C/C=C\CC[C@H]1Cc1ccc(F)cc1,inactive: -12.5%,
C1CCC(C(CC2CCCCN2)C2CCCCC2)CC1 (configuration not stated),inactive: 1.43%,
